PubChem BioAssay AID894 (National Center for Advancing Translational Sciences (NCATS), 2007)
“And” between values parts separate entries of the source, which are not always exact repeats. Equal values may be shown once. Hit rate of the full screen: of about 150,000 compounds, about 6,500 (4.3%) were called active. This list was built around the results that the source calls inconclusive (neither active nor inactive); the mix of calls is not that of the screen. Calls follow the shape of the dose curve; as a rule, active = well fitted inhibition curve with a large enough effect (not every such curve was filed as active); inconclusive = small, poorly fitted or top-dose-only effect, or another doubt; inactive = no such curve, though single readings can be large or run the other way. Where the call is inconclusive, the potency comes from a doubtful curve fit.
% is scaled to controls: 0 for no effect and ±100 for the full control effect; potency is read from the fitted curve at half-maximal effect; tags tell the direction and shape of the fitted curve.

The molecules below were run against 15-hydroxyprostaglandin dehydrogenase [NAD(+)] (Homo sapiens) (UniProt P15428) (assay: qHTS Assay for Inhibitors of HPGD (15-Hydroxyprostaglandin Dehydrogenase)). Settings: purified HPGD, NADH fluorescence kinetic, PGE2 substrate; activity change, negative = inhibition: stronger effect = lower value.
Sequence of UniProt P15428 (P15428 whole entry, looked up): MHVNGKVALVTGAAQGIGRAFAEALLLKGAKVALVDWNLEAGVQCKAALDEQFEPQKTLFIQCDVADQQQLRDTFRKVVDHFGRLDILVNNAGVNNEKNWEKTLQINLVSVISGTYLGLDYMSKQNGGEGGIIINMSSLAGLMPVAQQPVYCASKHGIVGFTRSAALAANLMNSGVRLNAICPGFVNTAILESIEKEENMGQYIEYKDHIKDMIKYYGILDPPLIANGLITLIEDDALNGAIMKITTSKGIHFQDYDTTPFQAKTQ
Method in brief: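 20 nM HPGD preincubated 15 min at room temperature with compound in 50 mM Tris-HCl pH 8, 0.01% Tween 20. Started with 1 mM NAD+ and 30 uM prostaglandin E2; NADH fluorescence (360/450 nm) read 5 times over 30-s intervals, last minus first.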
With `CCOC(=O)c1cc(-c2cc3ccccc3o2)nc2c1c(=O)[nH]c(=O)n2CCOC` the Potency was inconclusive: 14.1 µM [inhibitor, partial curve].
In the case of `COc1ccc(C(=O)Cc2ccc(OC)c(OC)c2)cc1`, the activity change, negative = inhibition is reported as inactive: -8.85%.
With `COc1ccc(N(CC(=O)Nc2nc3ccc(C)cc3s2)S(=O)(=O)c2c(C)nn(C)c2C)cc1` the activity change, negative = inhibition was inactive: -15.6%.
With `O=C1Cc2ccccc2N1c1ccccc1` the Potency was active: 35.5 µM.
`O=C(Nc1ccc(SC(F)F)cc1)c1ccc2nccnc2c1` was tested, and the activity change, negative = inhibition was inactive: -16.8%.
`COc1ccc(OCC(=O)Nc2cc3oc4ccccc4c3cc2OC)cc1` was tested, and the Potency was inconclusive: 35.5 µM [inhibitor, single point].
With `Brc1ccccc1C1=Nn2c(nnc2-c2ccccc2)SC1` the Potency was active: 15.8 µM.
`COCCOc1nc2c(c(=O)n(C)c(=O)n2C)n1Cc1cccc(OC)c1` was tested, and the activity change, negative = inhibition was inactive: -1.67%.
`Cc1cc(-c2nc3ccccc3o2)c2ccccc2n1` was tested, and the Potency was inconclusive: 28.2 µM [inhibitor, partial curve].
`CCOC(=O)C1=C(N)n2c(s/c(=C/c3ccco3)c2=O)=C(C(=O)OC)C1c1ccco1` (configuration not stated) was tested, and the activity change, negative = inhibition was inactive: -29.3%.
`O=C(c1ccncc1)N1CCN(C(=O)c2ccco2)CC1` was tested, and the activity change, negative = inhibition was inactive: -15.3%.
`O=C(NCC1CCCO1)c1nc2c(nnn2Cc2ccccc2Cl)c(=O)[nH]1` (configuration not stated) was tested, and the Potency was active: 12.6 µM.
For `CN(C(=O)c1cc2nc(-c3ccco3)cc(C(F)(F)F)n2n1)C1CCCCC1`, the Potency was inconclusive: 2 µM [inhibitor, full curve].
With `O=C(NCc1ccccc1C(F)(F)F)C1CC(c2ccccc2[N+](=O)[O-])=NO1` (configuration not stated) the activity change, negative = inhibition was inactive: -12.1%.
For `Cn1c(=O)cc(OCC(=O)Nc2ccccn2)c2ccccc21`, the Potency was inconclusive: 39.8 µM [inhibitor, partial curve].
For `O=C(NC1CCCCCCC1)c1ccc(CNc2c(N3CCOCC3)c(=O)c2=O)cc1`, the Potency was active: 17.8 µM.
For `Fc1ccc(/C=N/n2c(-c3cccs3)n[nH]c2=S)cc1`, the Potency was active: 3.98 µM.
`CCOC(=O)c1nc(-c2ccc3c(c2)OCO3)[nH]c1C` was tested, and the activity change, negative = inhibition was inactive: -11.1%.
In the case of `COc1cc(S(C)=O)ccc1-c1nc2ncccc2[nH]1` (configuration not stated), the Potency is reported as inconclusive: 12.6 µM [inhibitor, partial curve] and inconclusive: 25.1 µM [inhibitor, partial curve].
With `CCOc1cc2[nH]c(=S)n(CCCC(=O)NCc3ccco3)c(=O)c2cc1OCC` the activity change, negative = inhibition was inactive: -24%.
With `Cc1cccc(-n2c(-c3ccco3)nc3nc4ccccc4nc32)c1` the Potency was inconclusive: 14.1 µM [inhibitor, partial curve].
With `COc1c2ccoc2c(OC)c2oc(=O)ccc12` the Potency was inconclusive: 39.8 µM [inhibitor, partial curve].
`Cc1c(C2C(C#N)=C(N)N(c3ccccc3C#N)C3=C2C(=O)CCC3)cnn1C` (configuration not stated) was tested, and the activity change, negative = inhibition was inactive: -13.9%.
For `O=C(c1ccccc1)c1ccc2nc[nH]c2c1`, the Potency was active: 22.4 µM.
In the case of `CCOC(=O)CCc1c(C)nc(SCCCn2c(=O)[nH]c3ccccc32)c(C#N)c1C`, the Potency is reported as active: 15.8 µM.
For `O=C(NNC(=S)NCc1ccco1)c1ccc(Cl)s1`, the activity change, negative = inhibition was inactive: 0.139%.
With `O=C1CCNc2ccc(-c3ccccc3)cc21` the Potency was inconclusive: 35.5 µM [inhibitor, partial curve, poor fit].
In the case of `Cc1c(C(=O)Nc2cccc(Cl)c2)oc2ccc(S(=O)(=O)N3CCC4(CC3)OCCO4)cc12`, the Potency is reported as inconclusive: 31.6 µM [inhibitor, partial curve].
For `Nc1c(C(=O)CCC(=O)O)oc2ccc(Cl)cc12`, the Potency was inconclusive: 28.2 µM [inhibitor, partial curve].
In the case of `CC(Sc1nnc(N)s1)c1ccccc1Cl` (configuration not stated), the Potency is reported as inconclusive: 28.2 µM [inhibitor, single point].
For `COc1ccc2[nH]c3c(N4CC(C)OC(C)C4)ncnc3c2c1` (configuration not stated), the Potency was inconclusive: 10 µM [inhibitor, partial curve].
With `CC1=C/C(=C/N(C)c2ccccc2)C(=O)S1` the Potency was active: 31.6 µM.
In the case of `COC(=O)c1cc(NC(=O)/C=C/c2ccc3c(c2)OCO3)cc(C(=O)OC)c1`, the Potency is reported as inconclusive: 28.2 µM [inhibitor, partial curve].
`O=c1[nH]ncc(N2CCCCC2)c1Cl` was tested, and the activity change, negative = inhibition was inactive: -8.53%.
In the case of `CCn1cc(C(=O)N2CCCC2)c(=O)c2cc(S(=O)(=O)N3CCOCC3)ccc21`, the activity change, negative = inhibition is reported as inactive: 0.681%.
For `C/C(=C\COc1cc(=O)[nH]c2ccccc12)CCC(O)C(C)(C)O` (configuration not stated), the Potency was inconclusive: 31.6 µM [inhibitor, single point].
`COc1cc(OC)cc(-c2nc3cc(C)ccc3o2)c1` was tested, and the Potency was inconclusive: 15.8 µM [inhibitor, partial curve].
With `CCOC(=O)C1=C(C)NC(C)=C(C(=O)OCC)C1/C=C/c1ccccc1` the Potency was inconclusive: 28.2 µM [inhibitor, single point].
With `COc1ccccc1[C@@H]1C(c2cccc(Cl)c2)=NN(c2ccccc2)[C@H]1C(=O)N1CCOC1=O` the Potency was inconclusive: 31.6 µM [inhibitor, partial curve] and inconclusive: 3.55 µM [inhibitor, full curve].
In the case of `COc1ccc(-c2ccc(-c3cc(=O)oc4c(C(C)C)ccc(C)c34)cc2)cc1`, the activity change, negative = inhibition is reported as inactive: -9.75%.
`CC(=O)N(CCC(c1ccccc1)c1ccco1)Cc1cccs1` (configuration not stated) was tested, and the Potency was active: 28.2 µM.
`CCCOC(=O)Cc1c(O)c2ccccc2[nH]c1=O` was tested, and the Potency was inconclusive: 31.6 µM [inhibitor, single point].
With `FC(F)(F)c1cnc(Oc2cccc3ccccc23)c(Cl)c1` the Potency was inconclusive: 28.2 µM [inhibitor, partial curve, poor fit].
In the case of `Cn1cccc1C(=O)N1CCC2(CC1)CN(C(c1ccccc1)c1ccccc1)C2`, the activity change, negative = inhibition is reported as inactive: -16.4%.
For `CN(C)c1ncc2nc(-c3ccccc3)c(=O)n(C3CC3)c2n1`, the Potency was inconclusive: 28.2 µM [inhibitor, partial curve].
`Nc1cccc(OCc2nc(N)nc(N)c2-c2ccc(Cl)cc2)c1` was tested, and the activity change, negative = inhibition was inactive: -5.08%.
`CCN(CC)C(=O)CSc1nc2ccccc2c(=O)n1-c1cccc(OC)c1` was tested, and the activity change, negative = inhibition was inactive: -4.31%.
